Where a name gives a salt, the structure may show the parent alone. This is one part of the list.
Tested on: Schistosoma mansoni schistosomula
Experiment: phenotypic hit in primary schistosomula screen (any phenotype vs DMSO control) (binary (1 = hit, 0 = no phenotype)); higher = active (phenotype induced)
Settings: 1 µM; time (d): 7

| Compound | phenotypic hit |
| --- | --- |
| O=[N+]([O-])O[C@H]1CO[C@H]2[C@@H]1OC[C@H]2O[N+](=O)[O-] [isosorbide dinitrate] | inactive: 0 |
| CCC1(c2ccc(N)cc2)CCC(=O)NC1=O (racemic) [(±)-p-Aminoglutethimide] | inactive: 0 |
| ClC1=C(Cl)C2(Cl)C3C4CC(C5OC45)C3C1(Cl)C2(Cl)Cl (configuration not stated) [endrin] | inactive: 0 |
| ClC(Cl)=C(c1ccc(Cl)cc1)c1ccc(Cl)cc1 [dichlorodiphenyldichloroethylene] | active: 1 |
| CCOC(=O)C1C(C=C(C)C)C1(C)C (configuration not stated) [chrysanthemic acid, ethyl ester] | inactive: 0 |
| CCOP(=S)(OCC)SCSCC [phorate] | inactive: 0 |
| CCC1C2CC3C4N(C)c5ccccc5C45CC(C2C5OC(C)=O)N3C1OC(C)=O (configuration not stated) [ajmaline diacetate] | inactive: 0 |
| CN[C@@H](C)[C@@H](O)c1ccccc1 [(+)-Pseudoephedrine] | inactive: 0 |
| C[C@@H]1O[C@@H](O[C@H]2CC[C@]3(C=O)[C@H]4CC[C@]5(C)[C@@H](C6=CC(=O)OC6)CC[C@]5(O)[C@@H]4CC[C@]3(O)C2)[C@H](O)[C@H](O)[C@H]1O [convallatoxin] | inactive: 0 |
| CN1[C@@H]2C[C@@H](OC(=O)[C@H](CO)c3ccccc3)C[C@H]1[C@@H]1O[C@@H]12 [scopolamine hydrobromide] | inactive: 0 |
| CC1(C)C2CC(=O)[C@]3(C)C(CC[C@@]4(C)[C@H](c5ccoc5)OC(=O)C5OC543)[C@@]2(C)[C@@H](O)C[C@H]1O (some centres not stated) [1,3-dideacetyl-7-deacetoxy-7-oxokhivorin] | inactive: 0 |
| N[C@@H]1C[C@H]1c1ccccc1 [Tranylcypromine hydrochloride] | inactive: 0 |
| NCC(CC(=O)O)c1ccc(Cl)cc1 (racemic) [(±)-Baclofen] | inactive: 0 |
| NNCc1cccc(O)c1 [3-hydroxybenzylhydrazine dihydrochloride] | inactive: 0 |
| [O-][n+]1ccccc1[S-].[O-][n+]1ccccc1[S-].[Zn+2] [pyrithione zinc] | active: 1 |
| CCC(C)C(=O)O[C@@H]1C[C@@]2(C)[C@H](c3ccoc3)OC(=O)CC23OC2(C)O[C@]14[C@]1(C)[C@@H](CC(=O)OC)C5(C)CC1(O)[C@](O)(C5OC(=O)C1(C)OC1C)[C@@H](OC(C)=O)[C@]34O2 (some centres not stated) [utilin] | inactive: 0 |
| COc1ccc2c(c1O)-c1c(OC)c(OC)cc3c1[C@H](C2)N(C)CC3 [isocorydine (+)] | inactive: 0 |
| NC(=O)c1cc([N+](=O)[O-])cc([N+](=O)[O-])c1 [nitromide] | inactive: 0 |
| O=C1CC[C@@]2(O)[C@H]3Cc4ccc(O)c5c4[C@@]2(CCN3CC2CC2)[C@H]1O5 [naltrexone hydrochloride] | inactive: 0 |
| CN[C@@H]1[C@@H](O)[C@@H](O[C@@H]2[C@@H](O)[C@H](O[C@H]3O[C@H](CN)CC[C@H]3N)[C@@H](N)C[C@H]2N)OC[C@]1(C)O.CN[C@@H]1[C@@H](O)[C@@H](O[C@@H]2[C@@H](O)[C@H](O[C@H]3O[C@H]([C@@H](C)N)CC[C@H]3N)[C@@H](N)C[C@H]2N)OC[C@]1(C)O.CN[C@@H]1[C@@H](O)[C@@H](O[C@@H]2[C@@H](O)[C@H](O[C@H]3O[C@H]([C@@H](C)NC)CC[C@H]3N)[C@@H](N)C[C@H]2N)OC[C@]1(C)O [gentamicin sulfate] | inactive: 0 |
| CC(NC(C)(C)C)C(=O)c1cccc(Cl)c1 (configuration not stated) [Bupropion hydrochloride] | inactive: 0 |
| CC(=O)[C@H]1CC[C@H]2[C@@H]3CC[C@H]4C[C@H](O)CC[C@]4(C)[C@H]3CC[C@]12C [allopregnanolone] | inactive: 0 |
| CCOC(=O)CC(SP(=S)(OC)OC)C(=O)OCC (configuration not stated) [malathion] | inactive: 0 |
| CC(N)Cc1ccc(O)cc1 (configuration not stated) [hydroxyamphetamine hydrobromide] | inactive: 0 |
| O=c1c2ccccc2[se]n1-c1ccccc1 [ebselen] | inactive: 0 |
| N=C(NCCC[C@H](N)C(=O)O)N[N+](=O)[O-] [NG-Nitro-L-arginine] | inactive: 0 |

| Compound | phenotypic hit |
| --- | --- |
| C[C@]12CC[C@H]3[C@@H](CCC4=CC(=O)CC[C@@]43C)[C@@H]1CC[C@@H]2O [testosterone] | inactive: 0 |
| COc1cc2c3cc1Oc1c(OC)c(OC)cc4c1[C@@H](Cc1cccc(c1)Oc1ccc(c(O)c1)C[C@@H]3N(C)CC2)N(C)CC4 [berbamine hydrochloride] | inactive: 0 |
| O=c1ccc2cc(O[C@@H]3O[C@H](CO)[C@@H](O)[C@H](O)[C@H]3O)c(O)cc2o1 [aesculin] | inactive: 0 |
| COP(=O)(NC(C)=O)SC (configuration not stated) [acephate] | inactive: 0 |
| COc1c2c(cc3c1OCO3)CCN(C)C2 [hydrocotarnine hydrobromide] | inactive: 0 |
| C[C@]12CCC(=O)C[C@@H]1CC[C@@H]1[C@@H]2CC[C@]2(C)C(=O)CC[C@@H]12 [5alpha-androstan-3,17-dione] | inactive: 0 |
| C[C@]12CC[C@H](O)C[C@H]1CC[C@@H]1[C@@H]2CC[C@]2(C)[C@@H](C3=CC(=O)OC3)[C@@H](O)C[C@]12O [gitoxigenin] | inactive: 0 |
| CNC(=O)CSP(=S)(OC)OC [dimethoate] | inactive: 0 |
| CCNc1nc(Cl)nc(NC(C)C)n1 [atrazine] | inactive: 0 |
| C=CCc1ccc2c(c1)OCO2 [safrole] | inactive: 0 |
| CCCC(C)C1(CC)C(=O)NC(=O)NC1=O (configuration not stated) [pentobarbital] | inactive: 0 |
| Cc1ccc2cc3c(ccc4ccccc43)c3c2c1CC3 [3-methylcholanthrene] | inactive: 0 |
| C[C@@H]1C(=O)O[C@H]2[C@H]1CC[C@@]1(C)C=CC(=O)[C@@]3(C)O[C@@]213 [epoxy (4,5alpha)-4,5-dihydrosantonin] | inactive: 0 |
| C=CCN1CC[C@]23c4c5ccc(O)c4O[C@H]2C(=O)CC[C@@]3(O)[C@H]1C5 [naloxone hydrochloride] | inactive: 0 |
| C[C@]12CCC(=O)C=C1C=C[C@@H]1[C@@H]2CC[C@@]2(C)[C@H]1CC[C@@]2(O)CCC(=O)O [canrenoic acid, potassium salt] | inactive: 0 |
| CCOP(=S)(OCC)SCn1c(=O)oc2cc(Cl)ccc21 [phosalone] | inactive: 0 |
| O=C(O)COc1ccc(Cl)cc1Cl [2,4-dichlorophenoxyacetic acid] | inactive: 0 |
| CCNc1nc(Cl)nc(NCC)n1 [simazine] | inactive: 0 |
| CO[C@H]1[C@H](O)[C@H](O[C@H]2CC[C@@]3(C=O)[C@H](CC[C@@H]4[C@@H]3CC[C@]3(C)[C@@H](C5=CC(=O)OC5)CC[C@]43O)C2)O[C@@H](C)[C@@H]1O [peruvoside] | inactive: 0 |
| CC[C@@H](C(=O)[C@@H](C)[C@@H](O)[C@H](C)[C@@H]1O[C@@H]([C@@H](CC)C(=O)O)CC[C@@H]1C)[C@H]1O[C@]2(C=C[C@@H](O)[C@]3(CC[C@@](C)([C@H]4CC[C@](O)(CC)[C@H](C)O4)O3)O2)[C@H](C)C[C@@H]1C [salinomycin, sodium] | active: 1 |
| CC(=O)O[C@@H]1[C@H]2CC[C@H]3[C@@](C)(O)[C@@H]4C[C@H](O)C(C)(C)[C@@]4(O)[C@H](O)C[C@@]13C[C@@]2(C)O [grayanotoxin i] | inactive: 0 |
| CO[C@H]1C[C@H](O[C@H]2CC[C@@]3(C)[C@H](CC[C@@H]4[C@@H]3CC[C@]3(C)[C@@H](C5=CC(=O)OC5)[C@@H](OC(C)=O)C[C@]43O)C2)O[C@@H](C)[C@@H]1O [oleandrin] | inactive: 0 |
| C=C1C([C@]2(C)C(CC(=O)OC)[C@@](C)(COC(C)=O)OC(=O)C[C@@H]2OC(C)=O)[C@@H](OC=O)[C@H](OC(=O)C(OC(C)=O)C(C)CC)[C@@]2(C)[C@H](c3ccoc3)CC(=O)C12O (some centres not stated) [prieuranin acetate] | inactive: 0 |
| COP(=O)(OC)OC=C(Cl)Cl [dichlorvos] | inactive: 0 |
| C[C@H]1CC[C@]2(NC1)O[C@H]1C[C@H]3[C@@H]4CC[C@H]5C[C@@H](O)CC[C@]5(C)[C@H]4CC[C@]3(C)[C@H]1[C@@H]2C [tomatidine hydrochloride] | inactive: 0 |
| S=C=NCc1ccccc1 [benzyl isothiocyanate] | inactive: 0 |
